# The supplement of paper PMC8728848
# The list shows a part of the results.
# Columns and labels:
# Test in all cases: glycan array binding signal (z-score within array); higher = stronger binding
# Conditions in all cases: glycan notation: IUPAC condensed, linker removed
# Neu5Ac(a2-3)GalNAc = molecular target: Neu5Ac(a2-3)GalNAc
# Summary of the method: (§1)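 Columns mapping to the same glycan were averaged after glycan names were converted to IUPAC-condensed notation. The data come from 3228 arrays in the Consortium for Functional Glycomics database, limited to those with an available protein sequence. Binding is reported as a within-array Z-score averaged across arrays of one protein sequence and across linkers.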
# [1] = molecular target: Neu5Ac(a2-3)GalNAc(b1-4)GlcNAc
# Summary of the method: as §1
# [2] = molecular target: Neu5Ac(a2-3)[GalNAc(b1-4)]Gal(b1-4)Glc
# Summary of the method: as §1
# [3] = molecular target: Neu5Ac(a2-3)[GalNAc(b1-4)]Gal(b1-4)GlcNAc
# Summary of the method: as §1
# [4] = molecular target: Neu5Ac(a2-3)[Neu5Ac(a2-6)]GalNAc
# Summary of the method: as §1
# Neu5Ac(a2-6)Gal = molecular target: Neu5Ac(a2-6)Gal
# Summary of the method: as §1
# Neu5Ac(a2-6)Gal(b1-4)Glc = molecular target: Neu5Ac(a2-6)Gal(b1-4)Glc
# Summary of the method: as §1
# [5] = molecular target: Neu5Ac(a2-6)Gal(b1-4)GlcNAc
# Summary of the method: as §1
# [6] = molecular target: Neu5Ac(a2-6)Gal(b1-4)GlcNAc(b1-2)Man(a1-3)[Gal(b1-4)GlcNAc(b1-2)Man(a1-6)]Man(b1-4)GlcNAc(b1-4)GlcNAc
# Summary of the method: as §1
# [7] = molecular target: Neu5Ac(a2-6)Gal(b1-4)GlcNAc(b1-2)Man(a1-3)[GlcNAc(b1-2)Man(a1-6)]Man(b1-4)GlcNAc(b1-4)GlcNAc
# Summary of the method: as §1
# [8] = molecular target: Neu5Ac(a2-6)Gal(b1-4)GlcNAc(b1-2)Man(a1-3)[GlcNAc(b1-2)Man(b1-4)GlcNAc(b1-2)Man(a1-6)]Man(b1-4)GlcNAc(b1-4)GlcNAc
# Summary of the method: as §1
# [9] = molecular target: Neu5Ac(a2-6)Gal(b1-4)GlcNAc(b1-2)Man(a1-3)[Neu5Ac(a2-6)Gal(b1-4)GlcNAc(b1-2)Man(a1-6)]Man(b1-4)GlcNAc(b1-4)GlcNAc
# Summary of the method: as §1
# [10] = molecular target: Neu5Ac(a2-6)Gal(b1-4)GlcNAc(b1-2)Man(a1-6)[Gal(b1-4)GlcNAc(b1-2)Man(a1-3)]Man(b1-4)GlcNAc(b1-4)GlcNAc
# Summary of the method: as §1
# [11] = molecular target: Neu5Ac(a2-6)Gal(b1-4)GlcNAc(b1-2)Man(a1-6)[GlcNAc(b1-2)Man(a1-3)]Man(b1-4)GlcNAc(b1-4)GlcNAc
# Summary of the method: as §1
# [12] = molecular target: Neu5Ac(a2-6)Gal(b1-4)GlcNAc(b1-3)Gal(b1-4)GlcNAc
# Summary of the method: as §1
# [13] = molecular target: Neu5Ac(a2-6)Gal(b1-4)GlcNAc(b1-3)Gal(b1-4)[Fuc(a1-3)]GlcNAc(b1-3)Gal(b1-4)[Fuc(a1-3)]GlcNAc
# Summary of the method: as §1
# [14] = molecular target: Neu5Ac(a2-6)Gal(b1-4)GlcNAc6S
# Summary of the method: as §1
# Neu5Ac(a2-6)GalNAc = molecular target: Neu5Ac(a2-6)GalNAc
# Summary of the method: as §1
# [15] = molecular target: Neu5Ac(a2-6)GalNAc(b1-4)GlcNAc
# Summary of the method: as §1
# Neu5Ac(a2-8)Neu5Ac = molecular target: Neu5Ac(a2-8)Neu5Ac
# Summary of the method: as §1
# [16] = molecular target: Neu5Ac(a2-8)Neu5Ac(a2-3)Gal(b1-4)Glc
# Summary of the method: as §1
# [17] = molecular target: Neu5Ac(a2-8)Neu5Ac(a2-3)[GalNAc(b1-4)]Gal(b1-4)Glc
# Summary of the method: as §1
# [18] = molecular target: Neu5Ac(a2-8)Neu5Ac(a2-8)Neu5Ac
# Summary of the method: as §1
# [19] = molecular target: Neu5Ac(a2-8)Neu5Ac(a2-8)Neu5Ac(a2-3)Gal(b1-4)Glc
# Summary of the method: as §1
# [20] = molecular target: Neu5Ac(a2-8)Neu5Ac(a2-8)Neu5Ac(a2-3)[GalNAc(b1-4)]Gal(b1-4)Glc
# Summary of the method: as §1
# [21] = molecular target: Neu5Ac(a2-8)Neu5Ac(a2-8)Neu5Ac(a2-8)Neu5Ac(a2-3)[GalNAc(b1-4)]Gal(b1-4)Glc
# Summary of the method: as §1
# [22] = molecular target: Neu5Ac(b2-6)Gal(b1-4)GlcNAc
# Summary of the method: as §1
# Neu5Ac(b2-6)GalNAc = molecular target: Neu5Ac(b2-6)GalNAc
# Summary of the method: as §1
# [23] = molecular target: Neu5Ac9Ac(a2-6)Gal(b1-4)GlcNAc
# Summary of the method: as §1
# [24] = molecular target: Neu5Gc(a2-3)Gal(b1-3)GlcNAc
# Summary of the method: as §1
# [25] = molecular target: Neu5Gc(a2-3)Gal(b1-3)[Fuc(a1-4)]GlcNAc
# Summary of the method: as §1
# Neu5Gc(a2-3)Gal(b1-4)Glc = molecular target: Neu5Gc(a2-3)Gal(b1-4)Glc
# Summary of the method: as §1
# [26] = molecular target: Neu5Gc(a2-3)Gal(b1-4)GlcNAc
# Summary of the method: as §1
# [27] = molecular target: Neu5Gc(a2-3)Gal(b1-4)[Fuc(a1-3)]GlcNAc
# Summary of the method: as §1
# [28] = molecular target: Neu5Gc(a2-6)Gal(b1-4)GlcNAc
# Summary of the method: as §1
# Neu5Gc(a2-6)GalNAc = molecular target: Neu5Gc(a2-6)GalNAc
# Summary of the method: as §1
# [29] = molecular target: Neu5Gc(b2-6)Gal(b1-4)GlcNAc
# Summary of the method: as §1
binder,measurement,setting,value
Mannose Binding Protein (Lactobacillus plantarum) (protein) AERSEAALTHVDKDNFLKYFSLNGSATYDAKTGIVTITPNQNNQVGNFSLTSKIDMNKSFTLTGQVNLGSNPNGADGIGFAFHSGNTTDVGNAGGNLGIGGLQDAIGFKLDTWFNSYQAPSSDKNGSEISSTNSNGFGWNGDSANAPYGTFVKTSNQEISTANGSKVQRWWAQDTGESQALSKADIDGNFHDFVVNYDGATRTLTVSYTQASGKVLTWKTTVASSYQAMAMVVSASTGAAKNLQQFKLTSFDFQEAATVNVKYVDTTGHQLAQG,glycan array binding signal (z-score),Neu5Ac(a2-3)GalNAc,-0.473
same,glycan array binding signal (z-score),[1],-0.549
same,glycan array binding signal (z-score),[2],-0.165
same,glycan array binding signal (z-score),[3],-0.421
same,glycan array binding signal (z-score),[4],-0.459
same,glycan array binding signal (z-score),Neu5Ac(a2-6)Gal,-0.319
same,glycan array binding signal (z-score),Neu5Ac(a2-6)Gal(b1-4)Glc,-0.653
same,glycan array binding signal (z-score),[5],1.13
same,glycan array binding signal (z-score),[6],-0.581
same,glycan array binding signal (z-score),[7],-0.444
same,glycan array binding signal (z-score),[8],-0.034
same,glycan array binding signal (z-score),[9],-0.324
same,glycan array binding signal (z-score),[10],-0.361
same,glycan array binding signal (z-score),[11],-0.302
same,glycan array binding signal (z-score),[12],0.585
same,glycan array binding signal (z-score),[13],-0.31
same,glycan array binding signal (z-score),[14],-0.082
same,glycan array binding signal (z-score),Neu5Ac(a2-6)GalNAc,-0.316
same,glycan array binding signal (z-score),[15],-0.321
same,glycan array binding signal (z-score),Neu5Ac(a2-8)Neu5Ac,0.641
same,glycan array binding signal (z-score),[16],0.041
same,glycan array binding signal (z-score),[17],-0.567
same,glycan array binding signal (z-score),[18],-0.331
same,glycan array binding signal (z-score),[19],-0.398
same,glycan array binding signal (z-score),[20],-0.716
same,glycan array binding signal (z-score),[21],0.503
same,glycan array binding signal (z-score),[22],0.144
same,glycan array binding signal (z-score),Neu5Ac(b2-6)GalNAc,-0.422
same,glycan array binding signal (z-score),[23],-0.315
same,glycan array binding signal (z-score),[24],-0.785
same,glycan array binding signal (z-score),[25],-0.793
same,glycan array binding signal (z-score),Neu5Gc(a2-3)Gal(b1-4)Glc,0.178
same,glycan array binding signal (z-score),[26],-0.358
same,glycan array binding signal (z-score),[27],-0.269
same,glycan array binding signal (z-score),[28],-0.388
same,glycan array binding signal (z-score),Neu5Gc(a2-6)GalNAc,-0.2
same,glycan array binding signal (z-score),[29],1.04
